{"source": "the supplement of paper PMC3334620", "note": "The full ranking holds about 33,000 sequences; the median of “E-score (-0.5 to 0.5)” is about -0.011, and the highest 2% start at about 0.28. The list shows a part of the results.", "data": [{"target": "T1, Gcr1 (UniProt P07261)", "T1 sequence": "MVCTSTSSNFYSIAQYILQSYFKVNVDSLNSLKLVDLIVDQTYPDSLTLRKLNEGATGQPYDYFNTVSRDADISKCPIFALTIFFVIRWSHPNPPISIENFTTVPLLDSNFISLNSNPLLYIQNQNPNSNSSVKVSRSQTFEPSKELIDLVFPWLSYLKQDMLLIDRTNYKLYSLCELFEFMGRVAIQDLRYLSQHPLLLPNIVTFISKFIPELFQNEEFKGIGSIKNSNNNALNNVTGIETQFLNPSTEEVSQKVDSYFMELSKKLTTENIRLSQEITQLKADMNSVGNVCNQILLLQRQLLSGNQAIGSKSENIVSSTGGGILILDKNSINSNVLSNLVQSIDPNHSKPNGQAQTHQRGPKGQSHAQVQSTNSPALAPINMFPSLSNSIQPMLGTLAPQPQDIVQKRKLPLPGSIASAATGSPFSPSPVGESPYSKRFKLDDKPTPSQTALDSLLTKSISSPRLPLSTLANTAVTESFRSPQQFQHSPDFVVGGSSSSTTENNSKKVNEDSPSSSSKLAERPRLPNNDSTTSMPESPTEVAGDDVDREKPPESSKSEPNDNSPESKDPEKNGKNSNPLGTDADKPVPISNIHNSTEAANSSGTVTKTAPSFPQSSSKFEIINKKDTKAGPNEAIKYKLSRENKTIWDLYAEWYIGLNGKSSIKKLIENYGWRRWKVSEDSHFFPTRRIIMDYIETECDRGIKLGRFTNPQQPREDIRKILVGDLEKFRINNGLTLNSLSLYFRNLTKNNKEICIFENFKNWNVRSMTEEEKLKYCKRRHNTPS", "experiment": "PBM E-score (8-mer binding enrichment) (E-score (-0.5 to 0.5)); higher = stronger / more preferred TF binding; most listed sequences are background and not binding sites", "conditions": "protein concentration: 100 nM; construct: GST-full length", "how_it_was_run": "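Full-length yeast transcription factors or their DNA-binding domains, GST-tagged and expressed with PURExpress, were applied at about 100-200 nM to universal all-10-mer Agilent arrays. These arrays had been made double-stranded by primer extension on fresh or once-stripped slides. Detection used fluorescent anti-GST, normalisation used masliner, and E-scores for ungapped eight-base words pooled with reverse complements came from the Universal PBM Analysis Suite.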", "values": [{"sequence": "CCTTCCGC", "PBM E-score": -0.0943}, {"sequence": "AATAGTTA", "PBM E-score": 0.0311}, {"sequence": "ACGCCTAC", "PBM E-score": -0.159}, {"sequence": "GAATGACC", "PBM E-score": -0.183}, {"sequence": "ATTAACAA", "PBM E-score": 0.19}, {"sequence": "GAACACCA", "PBM E-score": -0.131}, {"sequence": "AGAGCCCG", "PBM E-score": 0.00139}, {"sequence": "ACCGTTAT", "PBM E-score": -0.113}, {"sequence": "ACTCATCA", "PBM E-score": -0.0684}, {"sequence": "AATCGATA", "PBM E-score": -0.0363}, {"sequence": "AGGCACCA", "PBM E-score": 0.136}, {"sequence": "CCTCCAAG", "PBM E-score": 0.0179}, {"sequence": "CATTCTGC", "PBM E-score": -0.13}, {"sequence": "AATCATGC", "PBM E-score": -0.165}, {"sequence": "CTCAAGCA", "PBM E-score": -0.0307}, {"sequence": "TAAACAGA", "PBM E-score": 0.113}, {"sequence": "ATCACCTA", "PBM E-score": -0.0775}, {"sequence": "ACACATGC", "PBM E-score": -0.0451}, {"sequence": "GAGGATCC", "PBM E-score": 0.239}, {"sequence": "GTCTCGTA", "PBM E-score": -0.03}, {"sequence": "ATGAGATC", "PBM E-score": -0.139}, {"sequence": "CAAATTAA", "PBM E-score": 0.07}, {"sequence": "CAAAACGA", "PBM E-score": -0.024}, {"sequence": "AACGGTGA", "PBM E-score": -0.196}, {"sequence": "AATACAAT", "PBM E-score": -0.0331}, {"sequence": "ATCCGTTC", "PBM E-score": -0.0718}, {"sequence": "CACGACGA", "PBM E-score": -0.106}, {"sequence": "AAGTGGAG", "PBM E-score": 0.141}, {"sequence": "ACGCAACC", "PBM E-score": 0.121}, {"sequence": "ACTCATAA", "PBM E-score": -0.0566}, {"sequence": "AGCTCATG", "PBM E-score": -0.0748}, {"sequence": "CTCTAAAG", "PBM E-score": 0.154}, {"sequence": "CGGAGTCC", "PBM E-score": 0.281}, {"sequence": "CGCGGCTA", "PBM E-score": 0.018}, {"sequence": "GCATTGCA", "PBM E-score": -0.00476}, {"sequence": "AAGGGCAC", "PBM E-score": -0.16}, {"sequence": "ATCCCTAG", "PBM E-score": 0.0838}, {"sequence": "CACTGAAC", "PBM E-score": -0.00372}, {"sequence": "ACGCGGTC", "PBM E-score": -0.067}, {"sequence": "ACCACCTA", "PBM E-score": 0.102}, {"sequence": "CTGCCCCC", "PBM E-score": -0.15}, {"sequence": "AAAGGTAG", "PBM E-score": -0.0137}, {"sequence": "CTGACGCC", "PBM E-score": -0.0359}, {"sequence": "CTTGCCTC", "PBM E-score": 0.0353}, {"sequence": "ATGCCCTA", "PBM E-score": -0.0726}, {"sequence": "CCTCTTCG", "PBM E-score": -0.0896}, {"sequence": "ACGTGGAG", "PBM E-score": 0.0848}, {"sequence": "CCGGCTAC", "PBM E-score": 0.0508}, {"sequence": "AGACTGTC", "PBM E-score": -0.219}, {"sequence": "CCCACGAG", "PBM E-score": -0.0381}, {"sequence": "CCACTAGA", "PBM E-score": 0.235}, {"sequence": "CGCCCCAC", "PBM E-score": 0.247}, {"sequence": "AACGAGCC", "PBM E-score": -0.301}, {"sequence": "AGCTTGCC", "PBM E-score": -0.277}, {"sequence": "AGGACTCC", "PBM E-score": 0.195}, {"sequence": "GCGATGGA", "PBM E-score": 0.00971}, {"sequence": "AGTATATA", "PBM E-score": 0.127}, {"sequence": "GAGGTATC", "PBM E-score": 0.0162}, {"sequence": "TCGAACGA", "PBM E-score": 0.0237}, {"sequence": "ATACTGAC", "PBM E-score": -0.0716}, {"sequence": "CTGAAAAC", "PBM E-score": 0.136}, {"sequence": "CATAAATA", "PBM E-score": 0.187}, {"sequence": "CGGTGTAC", "PBM E-score": -0.0918}, {"sequence": "CCAAATAG", "PBM E-score": 0.202}, {"sequence": "ACTCCTTC", "PBM E-score": 0.0272}, {"sequence": "ACCCCTCT", "PBM E-score": -0.0888}, {"sequence": "CGGCTTTC", "PBM E-score": -0.0315}, {"sequence": "AGCTAGAG", "PBM E-score": -0.226}, {"sequence": "ACTGTCAG", "PBM E-score": -0.061}, {"sequence": "CGCAATCC", "PBM E-score": -0.0145}, {"sequence": "AATTACTC", "PBM E-score": 0.0587}, {"sequence": "GTTAGGCA", "PBM E-score": -0.0488}, {"sequence": "GAGGTCTA", "PBM E-score": -0.128}, {"sequence": "ACCGTGTG", "PBM E-score": 0.0726}, {"sequence": "AACATCGT", "PBM E-score": 0.143}, {"sequence": "CGTTGGCA", "PBM E-score": -0.025}, {"sequence": "CCTACCGA", "PBM E-score": -0.124}, {"sequence": "AAAGGGTG", "PBM E-score": -0.0719}, {"sequence": "ACGGATTG", "PBM E-score": -0.0505}, {"sequence": "GATGCTGC", "PBM E-score": 0.276}, {"sequence": "ACATGTGC", "PBM E-score": -0.0727}, {"sequence": "CGGGTCGA", "PBM E-score": -0.0506}, {"sequence": "GATAAACC", "PBM E-score": -0.164}, {"sequence": "GGGGTTGA", "PBM E-score": -0.131}, {"sequence": "CTAGAGAC", "PBM E-score": -0.0538}, {"sequence": "CTCGGAAG", "PBM E-score": 0.0573}]}]}
